Measured values: US10299477B2 (priority 2015, dated 2019)

Each compound was assayed on Colletotrichum orbiculare. Settings: 250 ppm, sprayed 2.5 ml/pot before inoculation; evaluated 6-10 days after inoculation.

Structure (SMILES)	Test H (control value class, anthracnose on cucumber)
CCn1c(-c2c(F)cc(OC)cc2F)c(-c2ccc(OC)cc2Cl)cc(Cl)c1=O [Compound 748]	L (L shows 50% or less of control values)
CCn1c(-c2c(F)cc(F)cc2F)c(-c2cccc(OC)c2Cl)cc(Cl)c1=O [Compound 619]	H (H shows more than 50% of control values)
CCn1c(-c2c(F)cc(C)cc2F)c(-c2cc(F)ccc2Cl)cc(C)c1=O [Compound 710]	H (H shows more than 50% of control values)
Cc1cc(F)c(-c2c(-c3cc(F)ccc3Cl)ccc(=O)n2C)c(F)c1 [Compound 690]	H (H shows more than 50% of control values)
COc1ccc(-c2cc(Br)c(=O)n(C)c2-c2c(F)cccc2F)c(Cl)c1 [Compound 744]	L (L shows 50% or less of control values)
CCOc1cc(F)c(-c2c(-c3ccccc3Cl)cc(Br)c(=O)n2CC)c(F)c1 [Compound 703]	H (H shows more than 50% of control values)
COc1cc(F)c(-c2c(-c3cc(OC)ccc3Cl)cc(C)c(=O)n2C)c(F)c1 [Compound 724]	H (H shows more than 50% of control values)
CCn1c(-c2c(F)cc(OC)cc2F)c(-c2ccccc2Cl)ccc1=O [Compound 718]	H (H shows more than 50% of control values)
COc1cc(F)c(-c2c(-c3cc(OC)ccc3Cl)ccc(=O)n2C)c(F)c1 [Compound 721]	H (H shows more than 50% of control values)
CCOc1cc(F)c(-c2c(-c3cccc(OC)c3Cl)ccc(=O)n2CC)c(F)c1 [Compound 634]	H (H shows more than 50% of control values)
CCn1c(-c2c(F)cc(OC)cc2F)c(-c2cc(F)cc(F)c2Cl)ccc1=O [Compound 665]	H (H shows more than 50% of control values)

Same assay, conditions: in vivo

Structure (SMILES)	Test H (control value class)	Test H control value
Cn1c(-c2c(F)cccc2F)c(-c2cc(F)ccc2Cl)cc(F)c1=O [Compound 513]	H (key: H shows more than 50% of control values; L shows 50% or less of control values)	–
CCn1c(-c2c(F)cccc2F)c(-c2cc(F)cc(F)c2F)cc(C)c1=O [Compound 459]	H (key: H shows more than 50% of control values; L shows 50% or less of control values)	–
Cn1c(-c2c(F)cc(F)cc2F)c(-c2cccc(F)c2F)cc(Cl)c1=O [Compound 559]	H (key: H shows more than 50% of control values; L shows 50% or less of control values)	–
COc1cccc(-c2ccc(=O)n(C)c2-c2c(F)cccc2F)c1Cl [Compound 784]	H (key: H shows more than 50% of control values; L shows 50% or less of control values)	–
CCn1c(-c2c(F)cccc2F)c(-c2cc(F)cc(F)c2F)cc(Cl)c1=O [Compound 440]	H (key: H shows more than 50% of control values; L shows 50% or less of control values)	–
Cn1c(-c2c(F)cc(F)cc2F)c(-c2ccccc2)cc(Cl)c1=O [Compound 779]	H (key: H shows more than 50% of control values; L shows 50% or less of control values)	–
CCCn1c(-c2c(F)cccc2F)c(-c2cc(OC)ccc2Cl)cc(Br)c1=O [Compound 401]	H (key: H shows more than 50% of control values; L shows 50% or less of control values)	–
Cn1c(-c2c(F)cccc2F)c(-c2ccccc2F)cc(Br)c1=O [Compound 145]	–	H (key: H shows more than 50% of control values; L shows 50% or less of control values)
O=c1c(Cl)cc(-c2cc(Cl)cc(Cl)c2Cl)c(-c2c(F)cccc2F)n1CC(F)F [Compound 455]	H (key: H shows more than 50% of control values; L shows 50% or less of control values)	–
CCn1c(-c2c(F)cc(F)cc2F)c(-c2ccccc2Cl)cc(I)c1=O [Compound 821]	H (key: H shows more than 50% of control values; L shows 50% or less of control values)	–
Cn1c(-c2c(F)cccc2F)c(-c2c(F)cccc2Cl)ccc1=O [Compound 398]	H (key: H shows more than 50% of control values; L shows 50% or less of control values)	–
CCn1c(-c2c(F)cc(F)cc2F)c(-c2cc(OC)ccc2Cl)cc(Br)c1=O [Compound 768]	H (key: H shows more than 50% of control values; L shows 50% or less of control values)	–
CCn1c(-c2c(F)cccc2F)c(-c2ccc(Cl)cc2F)ccc1=O [Compound 408]	L (key: H shows more than 50% of control values; L shows 50% or less of control values)	–
CCn1c(-c2c(F)cccc2F)c(-c2cccc(F)c2)cc(Br)c1=O [Compound 155]	–	L (key: H shows more than 50% of control values; L shows 50% or less of control values)
CCOc1ccc(Cl)c(-c2ccc(=O)n(CC)c2-c2c(F)cccc2F)c1 [Compound 99]	–	H (key: H shows more than 50% of control values; L shows 50% or less of control values)
Cn1c(-c2c(F)cccc2F)c(-c2cccc(F)c2Cl)cc(Cl)c1=O [Compound 509]	H (key: H shows more than 50% of control values; L shows 50% or less of control values)	–
CCCCn1c(-c2c(F)cccc2F)c(-c2cc(OC)ccc2Cl)cc(Cl)c1=O [Compound 395]	L (key: H shows more than 50% of control values; L shows 50% or less of control values)	–
Cn1c(-c2c(F)cccc2F)c(-c2ccccc2F)ccc1=O [Compound 143]	–	H (key: H shows more than 50% of control values; L shows 50% or less of control values)
Cn1c(-c2c(F)cccc2F)c(-c2cc(Cl)cc(Cl)c2Cl)cc(Cl)c1=O [Compound 453]	H (key: H shows more than 50% of control values; L shows 50% or less of control values)	–
COc1cc(OC)c(Cl)c(-c2ccc(=O)n(/C=C/F)c2-c2c(F)cc(F)cc2F)c1 [Compound 379]	H (key: H shows more than 50% of control values; L shows 50% or less of control values)	–
Cn1c(-c2c(F)cc(F)cc2F)c(-c2cc(F)cc(F)c2)cc(Cl)c1=O [Compound 804]	H (key: H shows more than 50% of control values; L shows 50% or less of control values)	–
O=c1ccc(-c2cccc(Cl)c2F)c(-c2c(F)cccc2F)n1CC(F)F [Compound 494]	L (key: H shows more than 50% of control values; L shows 50% or less of control values)	–
CCOc1cccc(-c2cc(Cl)c(=O)n(CC)c2-c2c(F)cc(F)cc2F)c1Cl [Compound 809]	H (key: H shows more than 50% of control values; L shows 50% or less of control values)	–
CCn1c(-c2c(F)cc(F)cc2F)c(-c2cc(OC)ccc2Cl)cc(C)c1=O [Compound 769]	H (key: H shows more than 50% of control values; L shows 50% or less of control values)	–
Cn1c(-c2c(F)cccc2F)c(-c2cc(F)cc(F)c2F)ccc1=O [Compound 439]	H (key: H shows more than 50% of control values; L shows 50% or less of control values)	–
CCn1c(-c2c(F)cc(F)cc2F)c(-c2cc(O)ccc2Cl)cc(Cl)c1=O [Compound 792]	H (key: H shows more than 50% of control values; L shows 50% or less of control values)	–
CCOc1ccc(Cl)c(-c2cc(Cl)c(=O)n(CC)c2-c2c(F)cc(F)cc2F)c1 [Compound 793]	H (key: H shows more than 50% of control values; L shows 50% or less of control values)	–
